This is a noisy data set.
Test: amyloid nucleation score relative to library mode (yeast Sup35 reporter selection) (log enrichment difference); higher = more amyloid nucleation; sequences are the first 22 residues of the Bri2 peptide extended by up to 12 random residues
Settings: random library (experiment): 1;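 active = nucleation score significantly above 0 at FDR 0.05; inactive = not significantly above 0 or absent from output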
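Further: [psi-pin-] Saccharomyces cerevisiae expressing SupN fusions, induced by 100 µM Cu2SO4, selected 7 d at 30 °C without adenine and uracil, scored by deep sequencing of output versus input.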

Sequence	amyloid nucleation score
EASNCFAIRHFENKFAVETLICLIIRPDPGRVHC	inactive
EASNCFAIRHFENKFAVETLICLILFFRVSEGFT	inactive
EASNCFAIRHFENKFAVETLICLILFNTVFPDIV	inactive
EASNCFAIRHFENKFAVETLICLILRHVSWNARR	inactive
EASNCFAIRHFENKFAVETLICLIMNSFMYAL	inactive
EASNCFAIRHFENKFAVETLICLINIHI	6
EASNCFAIRHFENKFAVETLICLINWDDRLFRQ	7.56
EASNCFAIRHFENKFAVETLICLIQDCLFEEQLR	2.91
EASNCFAIRHFENKFAVETLICLIRALVRTTHVC	inactive
EASNCFAIRHFENKFAVETLICLIRVSSRFVPCL	inactive
EASNCFAIRHFENKFAVETLICLISRGLSATV	inactive
EASNCFAIRHFENKFAVETLICLISTLAGMGSRW	-0.359
EASNCFAIRHFENKFAVETLICLISVSFNLPSKD	8.23
EASNCFAIRHFENKFAVETLICLIVF	inactive
EASNCFAIRHFENKFAVETLICLIVFGLHQAKSS	inactive
EASNCFAIRHFENKFAVETLICLIVWTDKQAVRC	inactive

Same assay, conditions: random library (experiment): 2

Sequence	amyloid nucleation score
EASNCFAIRHFENKFAVETLICLIILCRFGSIM	inactive
EASNCFAIRHFENKFAVETLICLIKTSPVGCSSD	-0.148
EASNCFAIRHFENKFAVETLICLILGIGRVYTD	inactive
EASNCFAIRHFENKFAVETLICLILIDASVSTMG	inactive
EASNCFAIRHFENKFAVETLICLILL	3.8
EASNCFAIRHFENKFAVETLICLILLPRWIKLRN	-0.0198
EASNCFAIRHFENKFAVETLICLILLVWPFILVY	inactive
EASNCFAIRHFENKFAVETLICLILSSPRGASSV	4.52
EASNCFAIRHFENKFAVETLICLINSA	3.1
EASNCFAIRHFENKFAVETLICLIRDYLDLGAYR	0.545
EASNCFAIRHFENKFAVETLICLIRSSTGWIMFL	inactive
EASNCFAIRHFENKFAVETLICLIRSSTRFGPDT	inactive
EASNCFAIRHFENKFAVETLICLISCSIIINHLR	inactive
EASNCFAIRHFENKFAVETLICLISSYFWNRFRS	inactive
EASNCFAIRHFENKFAVETLICLIVCFLYSSLVP	inactive
EASNCFAIRHFENKFAVETLICLIVMVTHTGYSL	inactive
EASNCFAIRHFENKFAVETLICLIVSFRSRCYIV	inactive
EASNCFAIRHFENKFAVETLICLIVWCYNSYVE	inactive

Same assay, conditions: random library (experiment): 3

Sequence	amyloid nucleation score
EASNCFAIRHFENKFAVETLICLILGWDGRSLSA	5.59
EASNCFAIRHFENKFAVETLICLIMAVVHRGHKK	inactive
EASNCFAIRHFENKFAVETLICLIMLPLMCSMWG	inactive
EASNCFAIRHFENKFAVETLICLINTCGCGRCLD	7.87
EASNCFAIRHFENKFAVETLICLIPYRTQSRAHK	2.43
EASNCFAIRHFENKFAVETLICLIQDLGRRRGLR	3.72
EASNCFAIRHFENKFAVETLICLIRGRFWWVWEL	6.34
EASNCFAIRHFENKFAVETLICLIS	8.59
EASNCFAIRHFENKFAVETLICLISYLDNVIGTG	inactive
EASNCFAIRHFENKFAVETLICLIT	7.11
EASNCFAIRHFENKFAVETLICLITL	5
EASNCFAIRHFENKFAVETLICLIVPEEFHSPAG	7.02
EASNCFAIRHFENKFAVETLICLIVTWFSVLYGC	inactive
EASNCFAIRHFENKFAVETLICLIVWRQGFQT	inactive

Reference: the supplement of paper PMC12067230
